In the supplement of paper PMC11876631:
Changes are numbered by the printed parent chain. Names may count otherwise. ± gives the standard deviation of the averaged measurements. Laboratory Escherichia coli strains with one amino-acid change in an essential protein, pooled on minimal glucose agar with carbenicillin or gentamicin at twice the control MIC (plus kanamycin and chloramphenicol for the plasmids), 48 h. Fold change of barcode share against drug-free plates; higher = less susceptible. Active = above 20 in both replicates (the paper's putatively resistant). '<' = one read or none on drug, '>' = one read or none on a drug-free plate. Shares are relative, so most strains fall below 1 when a few take over. Listed are strains with at least 15 reads on both drug-free plates, and hits; most hits rest on fewer reference reads. Replicate rank correlation about 0.5. Edits are read from barcodes.

B1: mukB V713W (protein)
chain: MIERGKFRSLTLINWNGFFARTFDLDELVTTLSGGNGAGKSTTMAAFVTALIPDLTLLHFRNTTEAGATSGSRDKGLHGKLKAGVCYSMLDTINSRHQRVVVGVRLQQVAGRDRKVDIKPFAIQGLPMSVQPTQLVTETLNERQARVLPLNELKDKLEAMEGVQFKQFNSITDYHSLMFDLGIIARRLRSASDRSKFYRLIEASLYGGISSAITRSLRDYLLPENSGVRKAFQDMEAALRENRMTLEAIRVTQSDRDLFKHLISEATNYVAADYMRHANERRVHLDKALEFRRELHTSRQQLAAEQYKHVDMARELAEHNGAEGDLEADYQAASDHLNLVQTALRQQEKIERYEADLDELQIRLEEQNEVVAEAIERQQENEARAEAAELEVDELKSQLADYQQALDVQQTRAIQYNQAIAALNRAKELCHLPDLTADCAAEWLETFQAKELEATEKMLSLEQKMSMAQTAHSQFEQAYQLVVAINGPLARNEAWDVARELLREGVDQRHLAEQVQPLRMRLSELEQRLREQQEAERLLADFCKRQGKNFDIDELEALHQELEARIASLSDSVSNAREERMALRQEQEQLQSRIQSLMQRAPVWLAAQNSLNQLSEQCGEEFTSSQDVTEYLQQLLEREREAIVERDEVGARKNAVDEEIERLSQPGGSEDQRLNALAERFGGVLLSEIYDDVSLEDAPYFSALYGPSRHAIWVPDLSQVTEHLEGLTDCPEDLYLIEGDPQSFDDSVFSVDELEKAVVVKIADRQWRYSRFPEVPLFGRAARESRIESLHAEREVLSERFATLSFDVQKTQRLHQAFSRFIGSHLAVAFESDPEAEIRQLNSRRVELERALSNHENDNQQQRIQFEQAKEGVTALNRILPRLNLLADDSLADRVDEIRERLDEAQEAARFVQQFGNQLAKLEPIVSVLQSDPEQFEQLKEDYAYSQQMQRDARQQAFALTEVVQRRAHFSYSDSAEMLSGNSDLNEKLRERLEQAEAERTRAREALRGHAAQLSQYNQVLASLKSSYDTKKELLNDLQRELQDIGVRADSGAEERARIRRDELHAQLSNNRSRRNQLEKALTFCEAEMDNLTRKLRKLERDYFEMREQVVTAKAGWCAVMRMVKDNGVERRLHRRELAYLSADDLRSMSDKALGALRLAVADNEHLRDVLRMSEDPKRPERKIQFFVAVYQHLRERIRQDIIRTDDPVEAIEQMEIELSRLTEELTSREQKLAISSRSVANIIRKTIQREQNRIRMLNQGLQNVSFGQVNSVRLNVNVRETHAMLLDVLSEQHEQHQDLFNSNRLTFSEALAKLYQRLNPQIDMGQRTPQTIGEELLDYRNYLEMEVEVNRGSDGWLRAESGALSTGEAIGTGMSILVMVVQSWEDESRRLRGKDISPCRLLFLDEAARLDARSIATLFELCERLQMQLIIAAPENISPEKGTTYKLVRKVFQNTEHVHVVGLRGFAPQLPETLPGTDEAPSQAS
B2: mukB I712A (protein)
chain: B1 chain with I712A, W713V
B3: mukB I712W (protein)
chain: B1 chain with I712W, W713V
B4: mukB V713Q (protein)
chain: B1 chain with W713Q
B5: asd M140A (protein)
chain: MKNVGFIGWRGMVGSVLMQRMVEERDFDAIRPVFFSTSQLGQAAPSFGGTTGTLQDAFDLEALKALDIIVTCQGGDYTNEIYPKLRESGWQGYWIDAASSLRMKDDAIIILDPVNQDVITDGLNNGIRTFVGGNCTVSLALMSLGGLFANDLVDWVSVATYQAASGGGARHMRELLTQMGHLYGHVADELATPSSAILDIERKVTTLTRSGELPVDNFGVPLAGSLIPWIDKQLDNGQSREEWKGQAETNKILNTSSVIPVDGLCVRVGALRCHSQAFTIKLKKDVSIPTVEELLAAHNPWAKVVPNDREITMRELTPAAVTGTLTTPVGRLRKLNMGPEFLSAFTVGDQLLWGAAEPLRRMLRQLA

Biological target: Escherichia coli (laboratory strain)
Assay: barcode share on antibiotic plates over drug-free plates; higher = less susceptible
Method: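 A pool of E. coli strains, each edited to carry one amino-acid change in an essential protein, was grown for 48 h on minimal glucose agar with or without antibiotic; strain barcodes were sequenced; mean of two replicates.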

[1] = antibiotic: carbenicillin, 2× MIC (3.1 µg/mL)
[2] = antibiotic: gentamicin, 2× MIC (MIC 0.45 µg/mL)

Row | Protein | fold change of barcode share [1] | fold change of barcode share [2]
1 | B1 | 0.386 ± 0.076 | 0.0126 ± 0.0087
2 | B2 | 0.319 ± 0.057 | 0.00635 ± 0.00043
3 | B3 | 0.285 ± 0.077 | 0.00693 ± 0.0054
4 | B4 | 0.232 ± 0.013 | 0.0057 ± 0.0045
5 | B5 | 0.362 ± 0.012 | 0.0113 ± 0.0096
